Reference: PubChem BioAssay (NCI)
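Briefly, cells in 96-well plates were exposed to five compound concentrations for 48 h, and endpoints were estimated by linear interpolation. TGI denotes the concentration required for complete inhibition of growth.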 Not every entry of the source has a single result; some have several. The list is limited to them. The source may hold further records. Records of one sample usually come from different ranges of test concentrations, which the source does not state; some values may only mark the edge of a range.

How the values were obtained:
Test in all cases: NCI tumour cell line growth inhibition, 48 h
[1] = system: CCRF-CEM leukemia
[2] = system: OVCAR-8 ovarian
[3] = system: RPMI-8226 leukemia
[4] = system: DU-145 prostate
[5] = system: KM12 colon

CN1CCN(C(=O)Oc2cc3c(c4ccccc24)[C@H](CCl)CN3C(=O)c2cc3cc(OCCCN4CCC4)ccc3[nH]2)[C@H]2CSSC[C@H]21
TGI [1]: 585 nM and > 15.3 µM | TGI [2]: 1.35 µM and 60.2 nM | TGI [3]: 802 nM and > 15.3 µM | TGI [4]: 51.1 nM and > 15.3 µM | TGI [5]: 824 nM and > 15.3 µM
